Patent US11945858B2, “Antibodies and antibody fragments against HNAV1.7 channel and their use in pain and cancer indications” (NATIONAL RESEARCH COUNCIL OF CANADA, priority 2018, dated 2024)
“Also recorded” adds a separate entry of the source.

Experiments:
[1] = test system: glioblastoma U87MGvIII cells; test: Soft agar assay, U87MGvIII; details: mAb 1 μM; FIG. 24C
CHO-3E7 = test: Cell-ELISA on live CHO-3E7 cells; format: cell-based, Chinese hamster; details: hybridoma supernatant, OD450 nm
VHH FC5 = test: Surface Plasmon Resonance of mAbs, FC5 control; format: binding; details: SPR, 25 °C
[2] = test system: OD1-evoked Nav1.7-mediated spontaneous pain behaviours; format: in vivo, mouse; details: 100 μg, injected 60 minutes prior to OD1; 20 min after the injection
[3] = test system: CFA-induced thermal hyperalgesia; test: Hargreaves Model of Hyperalgesia in rats; format: in vivo, rat; details: 100 μg intraplantar
[4] = test system: ovarian cancer SKOV-3 cells; test: Soft agar assay, SKOV-3; details: mAb 1 μM; FIG. 24D
[5] = test system: overlapping antigen-peptides derived from DIE3IR; test: ELISA of mAbs on overlapping antigen-peptides derived from DIE3IR; format: binding, human
glioblastoma U87MG cells = test: Soft agar assay, U87MG; details: mAb 1 μM; FIG. 24A

B1: 1B6: anti-hNav1.7 mouse monoclonal antibody, IgG1, k; heavy chain SEQ ID NO: 113, light chain SEQ ID NO: 115 (antibody, V domains shown)
VH: QVQLKESGPGLVAPSQSLSITCTVSGFSLSRYNVHWVRQPPGKGLEWLGMIWGGGSTDYNSALKSRLSISKDNSKSQVFLKMNSLQTDDTAMYYCARNGANWDWFAYWGQGTLVTVSAAKTTPPSVY
VL: DIVMSQSPSSLPVSVGEKVTMS[sequence of about 80 residues not given]FGSGTKLEIKRADAAPTVSIFPPSSV
modifications: Heavy chain of the 1B6 antibody without leader sequence; Light chain of the 1B6 antibody without leader sequence
- Reduction of colony formation [1]: 53%
- ELISA on live cells (duplicates) CHO-3E7 (CHO-3E7; duplicate 1): −0.013
- ELISA on live cells (duplicates) CHO-3E7 (CHO-3E7; duplicate 2): −0.012
- Binding to FC5 control (comment, in words) (VHH FC5): did not bind
- Binding to FC5 control (comment, in words) (VHH FC5; listed as IB6): No binding
- Time spent in pain behaviors (saline plus OD1 = 100%) [2]: 94.13%±28.63
- Percentage of effect after injection (on left paw withdrawal) ([3]; 0 h): 0%
- Latency paw withdrawal ([3]; 1 h): 7.79 ± 0.56 s
- Percentage of effect after injection (on left paw withdrawal) ([3]; 1 h): 18.28% ± 4.85
- Latency paw withdrawal ([3]; 2 h): 8.08 ± 0.46 s
- Percentage of effect after injection (on left paw withdrawal) ([3]; 2 h): 22.20% ± 3.40
- Latency paw withdrawal ([3]; 4 h): 8.66 ± 0.45 s
- Percentage of effect after injection (on left paw withdrawal) ([3]; 4 h): 25.96% ± 3.69
- Maximum percentage of the effect (% Effect; % MPE) ([3]; time of maximum (1, 2 or 4 h)): 25.96±3.69%
- Reduction of colony formation [4]: did not reduce colony formation; also recorded: no inhibitory effect
- Binding with pep #2a and pep #2b (in words) [5]: no binding
- Peptide in which the binding motif resides / that is bound ([5]; peptides coated 100-500 ng/well): pep #2
- Reduction of colony formation (glioblastoma U87MG cells): did not affect colony formation; also recorded: no inhibitory effect
